According to the RNAGym collection of RNA variant scans (doi:10.1073/pnas.2313332121):
This sample is rich in variants without activity.

B1: TPR 5TU (parent)
chain: GGAUCUUCUCGAUCUAACAAAAAAGACAAAUCUGCCACAAAGCUUGAGAGCAUCUUCGGAUGCAGAGGCGGCAGCCUUCGGUGGCGCGAUAGCGCCAACGUUCUCAACUAUGACACGCAAAACGCGUGCUCCGUUGAAUGGAGUUUAUCAUG

Variants of: B1
Experiment: polymerase ribozyme fitness, log enrichment relative to wild type (log ratio); higher = more active; in vitro selection for triplet polymerase activity
Outline: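 Frozen incubation at −7 °C formed the core of a single, triplicate in vitro selection round applied to PCR-built, transcribed mutant libraries of each subunit of a heterodimeric triplet polymerase ribozyme. Extended constructs were gel-excised, captured with streptavidin beads and amplified by RT-PCR, and input and output libraries were Illumina-sequenced with a filter of ≥10 input reads and ≥1 read per output. Fitness is the logarithm of genotype enrichment relative to wild-type enrichment, with inverse-variance-weighted replicate averaging, and the logarithm is base 2.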

Variant	polymerase ribozyme fitness (log ratio)
GGAUCUUCUCGAUCUAACAAAAAAGACAAAUCUGCCACAAGGCUUGAGAGCAUCUUCGGCUGCAGAGGCGGCAGCCUUCGGUGGCGCGAUAGCCCCAACGUUCUCAACUAUGACAUGCAAAACACGUGCUCCGUUGAAUGGAGUUUAUCAUG [A41G A60C G94C C116U G124A]	≤ -4.2
GGAUCUUCUCGAUCUAACAAAAAAGACAAAUCUGCCACAACGCUUGAGAGCAUCUUCGGAUGCAGAGGCGGCAGCCUUCGGUGGCGCGAUAGCGCCAACGGUCUCAACUAUGACACGCAAAACGCGUGCUCCGUUGAAUGGAGUUUAUCAUG [A41C U101G]	-0.344
GGAUCUUCUCGAUCUAACAAAAAAGACAAAUCUGCCACAAGGCUUGAGAGCAUCUUCGGAUGCAGAGGCGGCAGCCUUCGGUGGCGCGGUAGCGCCAACGUGCUCCACUAUGACACGCAAAACGCGUGCUCCGUUGAAUGGAGUUUAUCAUG [A41G A89G U102G A106C]	≤ -4.2
GGAUCUUCUCGAUCUAACAAAAAAGACAAAUCUGCCACAACGCUGGAGAGCAUCUUCGGAUGCAGAGGCGGCAGCCUUCGGUGGCGCGAUAGCGCCAACGUUCUCAACUAUGACACGCAAAACGCGUGCUCCGUUGAAUCGAGUUAAUCAUG [A41C U45G G140C U146A]	≤ -4.2
GGAUCUUCUCGAUCUAACAAAAAAGACAAAUCUGCCACAACGCUUGAGAGCAUCUACGGAUUCAGAGGCGGCAGCCUUCGGUGACGCGAUAGCGCCAACGUUCUCAACUAUGACACGCAAAACGCGUGCUCCUUUGAAUGGAGUUUAUCAUG [A41C U56A G62U G84A G133U]	≤ -4.2
GGAUCUUCUCGAUCUAACAAAAAAGACAAAUCUGCCACAACGCUUGAGAGCAACUUCGGAUGCAGAGUCGGCAGCCUUCGGUGGCGCCAUAGCGCCAACGUUCUCAACUAUGACACGCAAAACGCGUGCUCCGUUGAAUGGAGUUUAUCAUG [A41C U53A G68U G88C]	≤ -4.2
GGAUCUUCUCGAUCUAACAAAAAAGACAAAUCUGCCACAACGCUUGAGAGCACCUUCGGAUGCACAGGCGGCAGCCUUCGGUGGCGCGAUAGCGCCCACGUUCUCAACUAUGACACGCAAAACGCGUGCUCCGUUGAAUGGAGUUUAUCAUG [A41C U53C G65C A97C]	≤ -4.2
GGAUCUUCUCGAUCUAACAAAAAAGACAAAUCUGCCACAAGGCUUGCGAGCAUCUUCGGAUGCAGAGGCGGCAGCCUUCGCUGGCGCGAUAGCGCCAACGUUCUCAACUAUGACACGCAAAACGCGUGCUCCGUUGAAUGGAGUUUAUCAUG [A41G A47C G81C]	-0.0928
GGAUCUUCUCGAUCUAACAAAAAAGACAAAUCUGCCACAACGCUUGAGAGCAUCGUCGGAUGCAGAGGCGGCAGCCUUCGGUGGCUCGAUAGCGCCAACGGUCUCAACUAUGACACGCAAAACGCGUGCUCUGUUGAAUGGACUUUAUCAUG [A41C U55G G86U U101G C132U G143C]	≤ -4.2
GGAUCUUCUCGAUCUAACAAAAAAGACAAAUCUGCCACAACGCUGGAGAGCAUCUUCGGAUGCAGAGGAGGCAGCCUUCGGUGGCGAGAUAGCACCAACGUUCUCAACUAUGACACGCAACACGCGUGCUCCGUUGAAUGGAGUUUAUCAUG [A41C U45G C69A C87A G94A A121C]	≤ -4.2
GGAUCUUCUCGAUCUAACAAAAAAGACAAAUCUGCCACAAGGCUUGAGAGCAUCUUUGGAAGCAGAGGCGGCAGCCUUCGGUGGCGCGAUAGCGCCAACGUUCUCAACUAUGACACGCAUAACGCGUGCUCCGUUGAAUAGAGUUUAUCAUG [A41G C57U U61A A120U G140A]	≤ -4.2
GGAUCUUCUCGAUCUAACAAAAAAGACAAAUCUGCCACAAGGCUUGAGCGCAUCCUCGGAUGCAGAGGCGGCAGCCUUCGGUGGCGCGAUAGCGCCGACGUUCUCAACUAUGACACGCAAAACGCGUGCUCCGUUGAAUGGAGUUUAUCAUG [A41G A49C U55C A97G]	≤ -4.2
GGAUCUUCUCGAUCUAACAAAAAAGACAAAUCUGCCACAAGGCUUGAGAGCAUCUUCGGAUGCAGAGGCGGCUGCCUACGGUGGCGCGAUAGCUCCAACGUUCUCAACUAUGACACGCAAAACGCGUGCUCCGUGGAAUGGAGUUUAUCAUG [A41G A73U U78A G94U U135G]	≤ -4.2
GGAUCUUCUCGAUCUAACAAAAAAGACAAAUCUGCCACAAGGCUUGAGAGCUUCUUCGGAUGCAGAGGCGGCAGACUUCGGUAGCGCGAUAGCGCCAACGUUCUCAACUAUGUCACGCAAAACGCGUGCUCCGUUGAAUGGAGUUUAACAUG [A41G A52U C75A G83A A113U U148A]	≤ -4.2
GGAUCUUCUCGAUCUAACAAAAAAGACAAAUCUGCCACAAGGCUUGCGAACAUCUUUGGAUGCAGAGGCGGCAGCCUUCGGUGGCGCGAUAGCGUCAACGUUCUCAGCUAUGACACGCAAAACGCGUGCGCCGUUGAAUGGAGUUUAUCAUG [A41G A47C G50A C57U C95U A107G U130G]	≤ -4.2
GGAUCUUCUCGAUCUAACAAAAAAGACAAAUCUGCCACAACGCUUGAGAGCAUCUUCGGAUGCAGAGGCGGCAGCCUUCGGUGGCGCGAUAGCGCCAACGUUCUCAACUAUGACACGCAAAACGCGUGCUCCGUUGAAGGGAGUUUAUCCUG [A41C U139G A150C]	≤ -4.2
GGAUCUUCUCGAUCUAACAAAAAAGACAAAUCUGCCACAACGCUUGAGAGCAUCUUCGGAUGCAGAGGCGGCAGCCUGCGGUGGUGUGAUAGCGCCAACGUUCUCAACUAUGACACGCAAAACGCGAGCUCCGUUGAACGGAGUUUAUCACG [A41C U78G C85U C87U U127A U139C U151C]	≤ -4.2
GGAUCUUCUCGAUCUAACAAAAAAGACAAAUCUGCCACAACGCUUGAGAGCAUCAUCGGAUGCAGAGGCGGCAGUCUUCGGUGGCGCGAUAGCGCCAACGUUCUCAACUAUGGCACGCAAAACGCGUGCUCCGUUGAAUGGAGUUUAUCAUG [A41C U55A C75U A113G]	≤ -4.2
GGAUCUUCUCGAUCUAACAAAAAAGACAAAUCUGCCACAACGCUUGAGAGCAUCUUCGGAUGCAGAGGCGGCAGCCUUCGGUGGCGCGAUAGCGCCAACGUUCUCAACUAUGACACGCAAAACGCGUGCUCCGUUGAAUGGAGCUUUUCAUG [A41C U144C A147U]	-0.619

Variant	polymerase ribozyme fitness (log ratio)
GGAUCUUCUCGAUCUAACAAAAAAGACAAAUCUGCCACAACGCUUGAGAGCAUCUUCGGAUGCAGAGGCGGCAGCCUUCGGUGGCGCGAUAGCGCCAACGUACUCAACUAUGACACGCAAAACGCGUGCUCCGUUGAAUGGAGUUUAUCAUG [A41C U102A]	-1.07
GGAUCUUCUCGAUCUAACAAAAAAGACAAAUCUGCCACAACGCUUGAGAGCAACUUCGGAUGCAGAGGCGGCAGCCUUCGGUGGCGCGAUAGCGCCAACGUUCUCAACUAUGACACGCAAAACGCGUGCUCCGUAGAAUGGAGUUUAUCAUG [A41C U53A U135A]	-1.07
GGAUCUUCUCGAUCUAACAAAAAAGACAAAUCUGCCACAAGGCUUGAGAGCGUCUUCGGAUGCAUAGGCGGCAGCCUUCGGUGGCGCGAUAGCGCCAACGGUCUCAACUAUGACACGCAAAACGCGUGCUCCGUUGAAUGGAGUUUAUCAUG [A41G A52G G65U U101G]	≤ -4.2
GGAUCUUCUCGAUCUAACAAAAAAGACAAAUCUGCCACAAGGCUUGAGAGCAUCUUCGGAUGCAGAGGCGGCAGCCUUCGGUGGCGCGAUAGCGCCGACGUUCUCAACUAUGACACGCAAAACGCGUGCUCCGUUGAAUGGAGUUUAUAAUG [A41G A97G C149A]	≤ -4.2
GGAUCUUCUCGAUCUAACAAAAAAGACAAAUCUGCCACAACGCUAGAGAGCAUCUUCGAAUGCAGAGGCGGCUGCCUUUGGUGGCGCGAUAGCGCCAACGUUCUCAACUAUGACACGCAAAACGCGUGCUCCGUUGAAUGGAGUUUAUCAUG [A41C U45A G59A A73U C79U]	≤ -4.2
GGAUCUUCUCGAUCUAACAAAAAAGACAAAUCUGCCACAACGCUUGAGAGCAUCUUCGGAUGCAGAGGCGGCAGCCUUCGGUGGCGCGAUAGCGCCAACGUUCUCAACUAUGACACGCAAAACGCGGGCUCCGUUUAAUGUAGUUUAUCAUG [A41C U127G G136U G141U]	≤ -4.2
GGAUCUUCUCGAUCUAACAAAAAAGACAAAUCUGCCACAAGGCUUGAGAGCAUCUUCGGAUGCAGAGGCGGCAGCCUUCGGUGGCGCGGUAUCGCCAACAUUCUCAACUAUGACACCCAAAACGCGUGCUCCAUUGAAUGGAUUUUAUCAUG [A41G A89G G92U G100A G117C G133A G143U]	≤ -4.2
GGAUCUUCUCGAUCUAACAAAAAAGACAAAUCUGCCACAACGCUUGAGAGCAUCGUCGGAUGCAGAGGAGGCAGCCUUCGGUGGCGCGAUAGCCCCAACGUUCUCAACUAUGACACGCAAAACGCGUGCUCUUUUGAAUGGAGUUUAUCAUG [A41C U55G C69A G94C C132U G133U]	≤ -4.2
GGAUCUUCUCGAUCUAACAAAAAAGACAAAUCUGCCACAACGCUUGAGAGCAUCUUCGGAAGCAGAGGCGGCUGCCUUCGGUGGCGCGAUAGCGCCAACGUUCUCAGCUAUGACACGCAAAACGCGUGCUCCGUUGAAUGGAGUUUAUCAUG [A41C U61A A73U A107G]	≤ -4.2
GGAUCUUCUCGAUCUAACAAAAAAGACAAAUCUGCCACAAGGCUUGAGAGCAUCUUUGGAUGCAGAGGCGGCAGCCUUCGGUGGUGCGAUAGCGCCAACGUUCUCAACUAUGACAUGCAAAACGCGUGCUCCGUUGAAUGGAGUUUAUCAUG [A41G C57U C85U C116U]	0.221
GGAUCUUCUCGAUCUAACAAAAAAGACAAAUCUGCCACAAGGCUUGAGAGCAUGUUCGGAUGCAGAGGCGGCAGCCUUCGGUGGCCCGAUAGCGCCAACGUUCUCAACUAUGACACGCAAAGCGCGUGCUCCGUUGAAUGGAGUUUAUCAUG [A41G C54G G86C A122G]	≤ -4.2
GGAUCUUCUCGAUCUAACAAAAAAGACAAAUCUGCCACAACGCUUGAGAGCAUCGUCGGAUGCAGAGGCGGCAGCCUUCGGUCGAGCGAUAGUGCCAACGUUCUCAACUAUGACACGCAAAACGCGUGCUCCGUUGAAUGGAGUUUAUCAUG [A41C U55G G83C C85A C93U]	≤ -4.2
GGAUCUUCUCGAUCUAACAAAAAAGACAAAUCUGCCACAAGGCUUGAGCGCAUCUUCGGAUGCAGAGGCGGCAGCCUUCGGUGGCGCGGUAGCGCCAACGUUCUCAAUUAUGACACGCAAAACGCGUGCUCCGUUGAAUGGAGUUUAUCAUG [A41G A49C A89G C108U]	≤ -4.2
GGAUCUUCUCGAUCUAACAAAAAAGACAAAUCUGCCACAAGGCUUGAGAGCAUCUUCGGAUGCAGCGGCGCCAGCCUUCGGUGGCGCGAUAGGGCCAACGUUCUCAACUAUGACACGCAAAACGCGUGCUCCGUUGAAUGGAGCUUAUCAGG [A41G A66C G71C C93G U144C U151G]	≤ -4.2
GGAUCUUCUCGAUCUAACAAAAAAGACAAAUCUGCCACAACGCUUGAGAGCAGCUUCGGAUGCAGAGGCGGCAGCCUUCGGUGGCGCGAUAGCGCCAACGUUCUCAACCAUGACACGCAAAACGCGUGCUCCGUUGAAUGGAGUUUUUCAUG [A41C U53G U109C A147U]	≤ -4.2
GGAUCUUCUCGAUCUAACAAAAAAGACAAAUCUGCCACAACGCAUGAGAGCAUCUUCGGAUGCAGAGGCGGCAGCCUUCGGUGGCGCGAUAGCGCGAACGUUCUCAACUAUGACACGCAAAACGCGUGCUCCGUUGAAUGGAGUUUAUCAUG [A41C U44A C96G]	≤ -4.2
GGAUCUUCUCGAUCUAACAAAAAAGACAAAUCUGCCACAACGCUUGAGAGCAUCUUCGGAUGCAGAGGCGGCAGCCUUCGGUGGCGCGAUAGCGCCAACGUUCUCAACUAUGACACGCAAAACGCGUGCUCCGUCGAAUGGAGUUUAUCAUG [A41C U135C]	-3.55
GGAUCUUCUCGAUCUAACAAAAAAGACAAAUCUGCCACAACGCUUGAGAGCACCUUUGGAUGCAGAGGCGGCAGCCUUCGGUGGCGGGAUAGCGCCAUCGUUCUCAACUAUGACACGCAAAACGCGUGCUCCGUUGAAUGGAGUUUAUCAUG [A41C U53C C57U C87G A98U]	≤ -4.2
GGAUCUUCUCGAUCUAACAAAAAAGACAAAUCUGCCACAACGCUUGAGAGCAUCUUCGGAUGCAGAGGCGGCAGCCUUCGGUGGCGCGAUAGCGCCAACGUUCUCAACUAUGACACGCAAAACGCGUGCUCCGUUGAAUGGACUUUAUCAUG [A41C G143C]	-2.56
